According to US6569897B1, “Alkenyldiarylmethane non-nucleoside HIV-1 reverse transcriptase inhibitors” (priority 1998, dated 2003):

Tested on: HIV-1 NL4-3, RT 4XAZT/L100I
Type: cell-based

`COC(=O)CCCC=C(c1cc(Cl)c(OC)c(C(=O)OC)c1)c1cc(Cl)c(OC)c(C(=O)OC)c1` [Compound 22, Methyl 3′,3″-Dichloro-4′,4″-dimethoxy-5,5″-bis(methoxycarbonyl)-6,6-diphenylhexenoate] gave an EC50 of 270 nM.
